According to the supplement of paper PMC3724861:
The list shows a part of the results.

These sequences were tested on T1, Caupolican (Caup) homeodomain DNA-binding domain (assay: PBM E-score (8-mer, recovered from the published 9-mer minima) (E-score (dimensionless, -0.5 to 0.5)); Drosophila protein; higher = stronger relative binding preference, active = 0.31 or more).
T1 sequence: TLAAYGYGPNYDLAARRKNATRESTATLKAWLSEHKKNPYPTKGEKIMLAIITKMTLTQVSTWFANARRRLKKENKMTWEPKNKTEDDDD
Summary of the method: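 Caup's homeodomain DNA-binding domain (residues 214-303) was made by in vitro transcription and translation and applied at 100 nM to custom-designed protein binding microarrays. Each value is an enrichment score that gives relative binding preference for a short DNA word, with higher meaning stronger. The 8-mer values were recovered from published 9-mer scores, each of which was the minimum of its two constituent 8-mer scores. A cutoff of 0.31 marks candidate sites.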

PBM E-score, active:
ATCAACAT 0.371
ACATGTGC 0.351

PBM E-score, ≥ -0.121:
TGCCTCCA

PBM E-score, inactive:
ATCAGTAC 0.201
CAGACCCG -0.173
CCCCATGC -0.233
AAGAACGT 0.0414
TTCGTCAA 0.074
CAGCGTGC -0.15
ATTTTCAC 0.0421
CCAGTCCC -0.12
AGGTAAGA 0.00531
CTAGCGAG -0.138
AATTATAG 0.105
GCGTATGA 0.0288
AACCAATG 0.0915
AAGCCAAC -0.0127
CCTACCGA -0.0361
AAAGGGTG -0.0752
ACGGATTG -0.00867
GATGCTGC -0.0365
CGGGTCGA -0.093
GATAAACC -0.00443
GGGGTTGA -0.0779
CTAGAGAC -0.12
CTCGGAAG -0.102
AACTACCG -0.0413
AACATCGT 0.269
CGTTGGCA -0.0585
ACTGTCAG 0.119
CGCAATCC -0.0118
AATTACTC 0.117
GTTAGGCA -0.02
GAGGTCTA -0.0762
ACCGTGTG 0.115
ACTCCTTC -0.0484
ACCCCTCT -0.0958
AGCTAGAG -0.119
CGGCTTTC -0.191
GAGGTATC -0.0102
TCGAACGA 0.0918
ATACTGAC 0.0949
CTGAAAAC -0.0188
CATAAATA 0.211
CGGTGTAC 0.257
CCAAATAG -0.00279
CTTGCCTC -0.0653
ATGCCCTA -0.0824
CCTCTTCG -0.0532
ACGTGGAG -0.0857
CCGGCTAC -0.175
AGACTGTC 0.0269
CCCACGAG -0.148
CCACTAGA -0.164
CGCCCCAC -0.243
AACGAGCC 0.0103
AGGACTCC -0.156
AGCTTGCC -0.124
GCGATGGA -0.0635
AGTATATA 0.159
ATCCCTAG -0.0272
